# Measured values: PubChem BioAssay AID1347428 (National Center for Advancing Translational Sciences (NCATS), 2020)
# Hit rate of the full screen: of about 91,000 compounds, about 290 (0.32%) were called active. The shares of active, inactive and inconclusive entries below differ from those in the screen. Calls follow the shape of the dose curve; as a rule, active = well fitted inhibition curve with a large enough effect; inconclusive = small, poorly fitted or top-dose-only effect; inactive = no such curve, though single readings can be large or run the other way. Potencies beside an inconclusive call are fits to weak or partial responses and may not hold up.
# Molecular target: Single-stranded DNA cytosine deaminase (Homo sapiens) (UniProt Q9GZX7)
# Assay: Primary qHTS assay for inhibitors of Activation Induced Cytidine Deaminase (AID): AID signal; also: nearly all actives have a fitted effect of over 25% in size
# Details: AID deamination FRET fluorescence, UDG-coupled, 4 h; series mostly up to 115 µM; activity change, negative = inhibition: at the top concentration
# Description: Assay Provider (PI) Patricia Gearhart Ph.D.
# National Institute on Aging
# National Institute of Health (NIH), Bethesda, MD
# Assay Provider (PI) Rahul Kohli Ph.D.
# Perelman School of Medicine
# University of Pennsylvania, Philadelphia, PA
# Activation-Induced Deaminase (AID) is a cytosine deaminase which converts cytosine into uracil within stretches of ssDNA. The presence of uracil in DNA initiates a cascade of mutagenic DNA repair to introduce point mutations and DNA double strand breaks. Specific targeting of AID to the immunoglobulin heavy chain loci (Igh) promotes mutagenesis in the antibody variable region for somatic hypermutation (SHM) or switch regions leading to class switch recombination (CSR). However, AID also plays a role in accumulating unnecessary mutations across the genome. Mis-targeting of AID results in the initiation of tumor development and leads to greater drug resistance among cancer cells when continually expressed. To identify an AID inhibitor, a small molecule library will be screened in collaboration with NCATS core facility at NIH. To confirm biological function, inhibitors will be examined in an in vitro murine B-cell activation assay and subsequent secondary validation screens. Top molecules will be further screened to identify inhibitory efficacy against a wild type primary splenocytes assay. Using these approaches, we hope to identify a small molecule with great efficacy and low toxicity for use as a molecular probe to further characterize AID's intricacies, or even as a therapeutic.
# A FRET based analysis of cytosine deamination, was developed to identify potential inhibitors of AID catalytic activity. This screen has two signal output, Read 1 evaluates the AID inhibition response. The second readout (Read 2) evaluates UDG response and is uses as a counterscreen to exclude false positive inhibitors. Inhibition in AID and inactivity in the UDG signal is the desired outcome for this assay.
# SEQUENCE No. (e.g., 1, 2, 3, etc.); […] (e.g., Cells, Incubation, Reagent, etc.); VALUE; DESCRIPTION
# 1a; Reagent; 3 uL; [4/3x] 1 uM AID/2.67 U/mL UDG
# 1b; Reagent; 3 uL; 2 U/mL UDG
# 1c; Reagent; 3 uL; 1 uM AID
# 2a; Compound; 46 nL; Follow-up plates (0.64 uM - 10 mM)
# 2b; Control; 46 nL; ATA ([…] - 10 mM)
# 3; Time; 10 min; incubation at room temperature
# 5; Time; 4 hr; incubation at room temperature
# 6; Reagent; 4 uL; [2x] 250 mM NaOH
# 7; Time; 15 sec; centrifuge at 1000 rpm
# 8; Time; 30 min; incubation at room temperature
# 9a; Detection; fluorescence (Read 1: AID); EnVision (PerkinElmer) plate reader, 540 excitation and 590 emission filters
# 9b; Detection; fluorescence (Read 2: UDG); EnVision (PerkinElmer) plate reader, 560 excitation and 665 emission filters
# NOTES (numbers refer to sequence above)
# 1a; Reagents were dispensed in a medium-binding black solid-bottom Greiner plates (789176F) using a BioRptr liquid dispenser. Dispense 3 uL of [4/3x] 1 uM AID (provided by Kohli lab) and [4/3x] 2 U/mL UDG (NEB M0280L) into columns 1, 2, 5 to 48.
# 1b; Dispense 3 uL of [4/3x] 2 U/mL UDG into column 3.
# 1c; Dispense 3 uL of [4/3x] 1 uM AID into column 4.
# 2a; Compound (7-points [uM] (0.64; 3.2; 16; 80; 400; 2,000; 10,000; 20,000) double pin-transferred (Dip Factor = 2) using the Kalypsys (Wako USA) pintool equipped with a 1536 pinhead for a final concentration range of 7.32 nM - 114 uM.
# 2b; 10 mM Aurintricarboxylic Acid (Sigma A1895) (ATA, 8-point, n = 2, 1:2.5 dilution in column 2) double pin-transferred (Dip Factor = 2) using the Kalypsys (Wako USA) pintool equipped with a 1536 pinhead for a [final] range of 186 nM - 114 uM.
# 3; Room temperature incubation.
# 4; Dispense 1 uL of substrate mixture from the Kohli lab [4x] […] DJC20 and [4x] 250 nM DJC23 into columns 1 to 48 .
# 5; Room temperature incubation.
# 6; Dispense 4 uL of substrate mixture [2x] 250 mM NaOH into columns 1 to 48.
# 7; Centrifugation step to remove bubbles.
# 8; Room temperature incubation
# 9a; Fluorescence signal (column label AID) was read using the EnVision plate reader. […]
# % is scaled to controls: 0 for no effect and ±100 for the full control effect; potency is read from the fitted curve at half-maximal effect; tags tell the direction and shape of the fitted curve.
# UniProt Q9GZX7, sequence (Q9GZX7 whole entry, looked up): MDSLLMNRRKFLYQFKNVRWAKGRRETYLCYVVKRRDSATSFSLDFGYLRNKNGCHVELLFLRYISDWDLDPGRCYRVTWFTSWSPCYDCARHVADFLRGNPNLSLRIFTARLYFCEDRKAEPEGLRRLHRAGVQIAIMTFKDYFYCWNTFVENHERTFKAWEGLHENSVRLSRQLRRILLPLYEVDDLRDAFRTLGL
SMILES,"activity change, negative = inhibition",Potency
NCCc1cccc(N)n1,inactive: 59.9%,–
O=C(Nc1ccc2c(c1)OCCO2)c1cccn(Cc2cccc(F)c2)c1=O,–,"inconclusive: 35.5 µM [inhibitor, partial curve, poor fit]"
CN1CC2(C)CNCC(C)(C1)C2O (configuration not stated),inactive: -1.14%,–
CCCNC(=O)NC(=O)CCl,inactive: -2.53%,–
O=[N+]([O-])c1cc(O)c(O)c([N+](=O)[O-])c1,–,"inconclusive: 50.1 µM [inhibitor, partial curve, poor fit]"
COc1ccccc1NC(=O)N(Cc1ccc2c(c1)OCO2)C1CCN(Cc2ccccc2)CC1,–,"inconclusive: 22.4 µM [inhibitor, full curve, poor fit]"
Cc1c(Cl)cccc1NC(=O)CN1C(=O)C(C)N=C(c2ccccc2)c2ccccc21 (configuration not stated),inactive: 10.9%,–
Cc1nnc(NC(=O)c2cccn(Cc3cccc(Cl)c3)c2=O)s1,–,"inconclusive: 14.1 µM [inhibitor, full curve, poor fit]"
O=C1CN(C(=O)c2cn(Cc3ccccc3)c3ccccc23)CCN1,inactive: -4.28%,–
C=CCOc1cccc(CNCCc2ccccc2)c1,inactive: 1.21%,–
COc1ccc(CCNCc2cccc(Br)c2)cc1,inactive: -15.9%,–
COC(=O)c1ccc(C2SCC(=O)Nc3n[nH]c(C)c32)cc1 (configuration not stated),inactive: -5.03%,–
COc1cc(C(c2c(O)c3ccccc3oc2=O)c2c(C)n(C)n(-c3ccccc3)c2=O)ccc1O (configuration not stated),–,"inconclusive: 79.4 µM [inhibitor, partial curve, poor fit]"
C[C@@H]1[C@@H]2Cc3ccc(O)cc3[C@@]1(C)CCN2CC1CC1,inactive: -1.2%,–
CCOc1ccc(NC(=O)c2cccn(Cc3cccc(Cl)c3)c2=O)cc1,–,"inconclusive: 3.55 µM [inhibitor, full curve, poor fit]"
CN(N=O)c1ccc(O)c(O)c1,–,active: 25.1 µM
CC(Oc1ccc(Cl)cc1)C(=O)O (configuration not stated),inactive: 2.18%,–
CN1CCC(N(C)c2nc(-c3ccc([N+](=O)[O-])cc3)nc3ccccc23)CC1,–,"inconclusive: 79.4 µM [inhibitor, partial curve]"
CN(C)C(=O)Oc1ccc2cc(-c3ccccc3)c(=O)oc2c1,inactive: 2.76%,–
CC(=O)c1c(C)[nH]c(C(=O)C(C)NC(C)c2ccc(Cl)cc2Cl)c1C (configuration not stated),inactive: -4.21%,–
N#Cc1ccc(NC(=O)CCC2CCCC2)cc1Cl,inactive: -8.77%,–
OCCSCCSCCO,inactive: -2.89%,–
Cc1c(-c2ccc(Cl)cc2)c(=O)oc2ccc(OC(=O)N(C)C)cc12,inactive: -13.1%,–
Cc1ccc(NC(=O)N(Cc2ccc3c(c2)OCO3)C2CCN(Cc3ccccc3)CC2)cc1Cl,–,"inconclusive: 25.1 µM [inhibitor, full curve, poor fit]"
CC(=O)OC1CCC2(C=O)[C@H]3CCC4(C)C(C5=CC(=O)OC5)CCC4(O)[C@@H]3CCC2(O)C1 (some centres not stated),inactive: 5.66%,–
O=c1oc2ccccc2c(O)c1C(c1cccc(O)c1)c1c(O)c2ccccc2oc1=O,–,active: 50.1 µM

SMILES,"activity change, negative = inhibition",Potency
NCC(O)c1cc(O)c(O)cc1F (configuration not stated),–,active: 50.1 µM
CNC(=O)NC(=O)C(C)Cl (configuration not stated),inactive: -0.615%,–
Cc1[nH]c2ccc(C34CC5CC(CC(C5)C3)C4)cc2c1CCN,inactive: -3.16%,–
COc1ccc(-c2nc(CN3C(=O)CN=C(c4ccccc4)c4ccccc43)c(C)o2)cc1,–,"inconclusive: 79.4 µM [inhibitor, partial curve, poor fit]"
C[N+]1(C)CCOC(O)(c2ccc(-c3ccc(C4(O)C[N+](C)(C)CCO4)cc3)cc2)C1 (configuration not stated),–,"inconclusive: 56.2 µM [inhibitor, partial curve, poor fit]"
Cc1[nH]nc2c1C(c1ccc(-c3ccc(F)cc3)o1)SCC(=O)N2 (configuration not stated),inactive: -2.65%,–
COc1ccc(-n2c(/C=C\c3ccccc3F)nc3ccccc3c2=O)c(OC)c1,–,"inconclusive: 31.6 µM [inhibitor, full curve, poor fit]"
Cc1ccc(NC(=O)N(Cc2ccc3c(c2)OCO3)C2CCN(Cc3ccccc3)CC2)cc1C,–,"inconclusive: 79.4 µM [inhibitor, partial curve, poor fit]"
COc1ccc(OC)c(C(c2c(O)c3ccccc3oc2=O)c2c(C)n(C)n(-c3ccccc3)c2=O)c1 (configuration not stated),inactive: -8.03%,–
CN1CC2(c3ccccc3)CN(C)CC(c3ccccc3)(C1)C2=O,–,"inconclusive: 100 µM [inhibitor, single point]"
O=[N+]([O-])c1ccc(NCCNCCO)c2ncccc12,–,"inconclusive: 79.4 µM [inhibitor, partial curve, poor fit]"
O=C(CN1C(=O)CN=C(c2ccccc2)c2ccccc21)Nc1cccc(C(F)(F)F)c1,–,"inconclusive: 44.7 µM [inhibitor, partial curve, poor fit]"
CCN(CC)C(=O)c1ccc(NC(=O)CCn2nc(-c3ccc(Cl)cc3)c3ccccc3c2=O)cc1,–,"inconclusive: 25.1 µM [inhibitor, single point]"
CCC(CN)c1ccccc1 (configuration not stated),inactive: -3.5%,–
Cc1cccc(-n2nc(C)c3c2NC(=O)CSC3c2ccccc2Cl)c1 (configuration not stated),inactive: -13.9%,–
O=C(COC(=O)C(O)(c1ccccc1)c1ccccc1)c1c[nH]c2ccccc12,inactive: 23.8%,–
CCCOc1ccccc1CCN,inactive: 0.34%,–
Cc1cccc(CN2C(=O)CN=C(c3ccccc3)c3ccccc32)c1,–,"inconclusive: 44.7 µM [inhibitor, partial curve]"
CCCCC12CN3CC(C)(CN(C1)C3c1ccccn1)C2=O (configuration not stated),inactive: -0.326%,–
NC(Cc1cc(O)c(O)cc1O)C(=O)O (configuration not stated),–,active: 14.1 µM
CN(N=O)c1cc(O)ccc1O,–,active: 28.2 µM
CCCNC(=O)c1cn(Cc2ccccc2)c2ccccc12,inactive: -1.31%,–
Cc1c(C(c2ccc(Br)cc2)c2c(O)c3ccccc3oc2=O)c(=O)n(-c2ccccc2)n1C (configuration not stated),–,"inconclusive: 100 µM [inhibitor, single point]"
COCCN1CCC(O)C2CCCCC21 (configuration not stated),inactive: 0.274%,–
CCOC(=O)C1=C(C)OC(N)=C(C(=O)OC(C)C)C12C(=O)Nc1ccc(Br)cc12 (configuration not stated),inactive: 137%,–
CNCCc1c[nH]c2ccc(O)cc12,–,"inconclusive: 89.1 µM [inhibitor, single point]"

SMILES,"activity change, negative = inhibition",Potency
Cc1ccc(-c2nc(CN3C(=O)CN=C(c4ccccc4)c4ccccc43)c(C)o2)cc1,–,"inconclusive: 39.8 µM [inhibitor, partial curve, poor fit]"
COc1ccccc1C1SCC(=O)Nc2c1c(C)nn2-c1cccc(C)c1 (configuration not stated),–,"inconclusive: 100 µM [inhibitor, single point]"
Cc1cc(C(=O)C(Cl)(Cl)Cl)c(C)n1C,inactive: 10.7%,–
COc1cccc(NC(=O)c2cccn(Cc3ccccc3C)c2=O)c1,–,"inconclusive: 8.91 µM [inhibitor, full curve, poor fit]"
COc1ccccc1C1SCC(=O)Nc2c1c(C)nn2C (configuration not stated),inactive: -4.48%,–
CCCC12CN3CC(C)(CN(C1)C3c1c(C)[nH]c(=O)[nH]c1=O)C2=O (configuration not stated),–,active: 10 µM
N#Cc1c(N)nc2c(c1-c1ccc(OCc3ccccc3F)cc1)c(=O)nc1sccn12,–,"inconclusive: 35.5 µM [inhibitor, partial curve, poor fit]"
CCCC1=Nc2cc(C(=O)NCCCN(CC)CC)ccc2Sc2ccccc21,–,"inconclusive: 70.8 µM [inhibitor, partial curve, poor fit]"
Cc1ccccc1CN1C(=O)C(C)N=C(c2ccccc2)c2ccccc21 (configuration not stated),–,"inconclusive: 44.7 µM [inhibitor, partial curve]"
Cc1cccc(C)c1-n1nnnc1C1(NC(C)C)CCCCC1,inactive: -11.8%,–
COC(=O)c1ccc(CCN)cc1,inactive: 5.85%,–
CCOc1cc(CN2CCN(C(=O)COc3ccc4ccccc4c3)CC2)ccc1OC,inactive: -8.11%,–
CNc1ccc2oc(C[C@H]3O[C@@]4(CC[C@H]3C)O[C@H]([C@H](C)C(=O)c3ccc[nH]3)[C@H](C)C[C@H]4C)nc2c1C(=O)O,–,"inconclusive: 79.4 µM [inhibitor, partial curve, poor fit]"
COc1ccc2c(c[n+](C)c3c4cc5c(cc4ccc23)OCO5)c1OC,–,active: 39.8 µM
O=C(c1ccc2c(c1)N(Cc1ccc(F)cc1)C(=O)c1ccccc1S2)N1CCC2(CC1)OCCO2,–,"inconclusive: 50.1 µM [inhibitor, partial curve, poor fit]"
Cc1ccccc1-n1c(/C=C/c2ccc(N(C)C)cc2)nc2ccccc2c1=O,–,"inconclusive: 100 µM [inhibitor, partial curve, poor fit]"
CN1CC[C@@]2(C)c3cc(O)ccc3N(C)C12 (some centres not stated),–,active: 11.2 µM
CN(C)c1ccc(-[n+]2ccc(-c3cc[n+](-c4ccc(N(C)C)cc4)cc3)cc2)cc1,–,"inconclusive: 50.1 µM [inhibitor, partial curve, poor fit]"
COc1cc(-c2c(C#N)c(N)nc3c2c(=O)nc2sccn23)ccc1OCc1ccccc1C,–,"inconclusive: 56.2 µM [inhibitor, partial curve, poor fit]"
CC(=O)c1cccc(NC(=O)c2cccn(Cc3cccc(C)c3)c2=O)c1,–,"inconclusive: 20 µM [inhibitor, partial curve, poor fit]"
CC1C(c2ccc(F)cc2)=[N+]([O-])C(C)(C(=O)c2ccccc2)N1O (configuration not stated),inactive: 2.24%,–
CCc1ccc2[nH]c(C)c(CCN)c2c1,inactive: -1.71%,–
O=C(CSC1c2ccccc2Oc2ccccc21)Nc1ccccc1C(=O)O,–,"inconclusive: 79.4 µM [inhibitor, partial curve, poor fit]"
CCCCCCCCCCCCCC(=O)O[C@@H]1[C@@H](C)[C@@]2(O)[C@@H](C=C(CO)C[C@@]3(O)C(=O)C(C)=C[C@@H]23)C2C(C)(C)[C@@]21OC(C)=O (some centres not stated),–,"inconclusive: 56.2 µM [inhibitor, partial curve, poor fit]"
CN1CC[C@@]2(C)c3cc(OC(=O)Nc4ccccc4)ccc3N(C)[C@@H]12,–,"inconclusive: 100 µM [inhibitor, partial curve, poor fit]"
